Read counts are not given, so values of variants with three or more changes are uncertain.
B1: LINE1-mini (parent)
chain: GGCAGAGCUCAACACAGCGUGGCAAAGUGGCUGUGGCUAGACUGCC

Variants of: B1
Assay: self-cleavage, relative activity (ratio to wild type); higher = more cleavage; in vitro, sequencing; the parent is a self-cleaving ribozyme

Row | Variant | self-cleavage
1 | A12G C18U A26U C31G C42A | 0.04
2 | A4U C10U U38A A41G G44U | 0.03
3 | C13A G22C A25U U32G | 0.02
4 | C3A C23U C37U U43A C45U | 0.15
5 | G7A G29U A39G | 0.08
6 | G33A G40U G44U C45G | 0.07
7 | C23U U28G C37A | 0.02
8 | A11G G19U C42U | 0.01
9 | G30U A39U C45A | 0.33
10 | G1C G27U G30A C31G C42G C45A C46A | 0.01
11 | C15U U20C C23A A24G G33U | 0.08
12 | C10A G22C G40A | 0.02
13 | U9A G17A A26G C42A C45U | 0.02
14 | C3G C15U A26C U43C | 0.05
15 | G22U U38A G44A | 0.26
16 | A14C C15U G27A U34G | 0.29
17 | G29U C31G G40A | 0.02
18 | C10A A14U A16C G30U | 0.01
19 | A14U G30A G36U | 0.05
20 | U9A U20G U28G | 0.25
21 | G1U A16G C18A C37G A39G | 0
22 | U20G G36U U43A | 0.02
23 | G2A A6C G35C A41U | 0.06
24 | C8A C23A C42U | 0.12

Row | Variant | self-cleavage
25 | C3U A6G C37G | 0.03
26 | C10A C23A G35A | 0.01
27 | G5U U9A C18U | 0.07
28 | C13A U34A C45A | 0.05
29 | C3U C18U G21C C42U G44U | 0.14
30 | A11C C13A G35U | 0.03
31 | G27C A39C G40U | 0.07
32 | U9A G21A G27U C45A | 0.78
33 | G19U U28G C37A A41G | 0
34 | G2C U38A C42G | 0.21
35 | C10A A24U A41C G44U | 0.04
36 | G7C A14U A16C C46U | 0.04
37 | G1U G7C U9A A16U U28A C42U | 0.04
38 | C18A G22C G33A | 0.03
39 | G2A A14G G17C G21C | 0.06
40 | C3G A25C G29A | 0.21
41 | A11G A24G A25U A26G U38A | 0.01
42 | A4C A24U G33U | 0.04
43 | G21A G30A A41C | 0.15
44 | G30U U43G C46G | 0.06
45 | C3G A11U G22U | 0.08
46 | G1A C3G A16C | 0.19
47 | C8G G27A C37A | 0.02
48 | G2U G21C G27U C31G | 0.02

Row | Variant | self-cleavage
49 | G5A A12U A25C G35A G40C | 0.01
50 | A4U G19U G30U | 0.06
51 | G7A U9A G19A | 0.4
52 | A16C G21C U32A C37G | 0.02
53 | U9A G19C U20G G29C G44U | 0.03
54 | C13A C18G G36C U38A | 0.03
55 | G7A C15U G27A U38C | 0.11
56 | C3G G29A U38A A39U | 0.09
57 | A4U G5C C8A C10U A25G A39C C42G | 0.14
58 | G5A C13A G22C A24G A39G | 0.09
59 | G5U G29U C42A | 0.26
60 | C8G A11C A14U G40U | 0.06
61 | A4G C10U A25G C42U | 0.02
62 | G2U C13U U28A G36A C37A | 0.1
63 | G1C A6C U28G C37A A39G C42U | 0.01
64 | G36U A39G C46G | 0
65 | C10A C18G C31A U38A | 0.01
66 | G5U A6G G40A A41G | 0.13
67 | G1A G27U U28A | 0.4
68 | C15G A26C G35U | 0.02
69 | G5C A12U A26G C37G | 0.02
70 | U34G G35A G36A C37G A41U G44U | 0.01
71 | A12C C13A C31G | 0.03
72 | U20A A25C C31G | 0.06

Row | Variant | self-cleavage
73 | C15U U38G C42A | 0.11
74 | A24U A41C C42U | 0.08
75 | A6U A14C C37A | 0.98
76 | G2A A12U G27U G40C | 0.14
77 | A4G G5C U20G | 0.08
78 | G1U G17A G30A | 0.06
79 | G1C C10A A24U G35U C37U | 0.01
80 | G1A A12G C31U | 0.05
81 | C3A A4G U9A A14U A26U U34C A41U | 0.2
82 | A4U C18A U20A G21A | 0.58
83 | A4G G33C C37U U43A | 0.02
84 | C10A C23U G40U | 0
85 | G17C U20G C23U U32G G33C | 0.05
86 | C13A U28A G40A C46A | 0.09
87 | U9G G22C G40U U43G | 0.01
88 | C8A U9C G44C | 0.1
89 | C8A A16U U20G U28G G30U C37A U38A | 0.17
90 | G27U A41G G44C C45G | 0.04
91 | A6U U38G G40C | 0
92 | G7U C8G A16C G35A | 0.06
93 | G5C C15A G22C | 0.16
94 | G27C G35A U38G C42A | 0.01
95 | G1C C3U G27U G30U U38C C46A | 0.14
96 | G2A A14C G22A G35U | 0.1

Row | Variant | self-cleavage
97 | A6G A26U G29C C31G | 0.02
98 | G7C C23U G36U A39G C42A | 0.02
99 | U9A C13A G30U G35U G36A U38C C42G U43C C46U | 0.09
100 | A6U C13G G35C | 0.54
101 | A6U C8A A16U C18G G40A | 0.06
102 | C10A C18U A26U | 0.06
103 | G19A G44U C46A | 0.11
104 | A4C C10U A12C G33A G44C | 0.03
105 | C13A C18G U20G G30C | 0.01
106 | G7C C8A U32A U43C | 0.09
107 | G5C A14C C23U C45U | 0.07
108 | C3U A11C C15A | 0.02
109 | U20C G22C U32A C37G G40C A41U C42G | 0.01
110 | C8G G21C C23A G33U A39U G44C | 0.01
111 | A11C U28C C45G C46A | 0
112 | A26U G30A U38A G40A C42G | 0.11
113 | G22A C23A G35A | 0.15
114 | C3U A14G G21C C23G | 0.23
115 | G7A C8G G27A | 0.04
116 | C13U G21A G44U | 0.4
117 | C10U C13A C23U | 0.06
118 | G1A C8G G22U G40A | 0.21
119 | C8G C23G A39C | 0.05
120 | G29C G36U C46G | 0.02

Row | Variant | self-cleavage
121 | C13U G35A A39C | 0.06
122 | C10G A39U A41G | 0.14
123 | C15A C31G U34C C45U | 0.13
124 | C3A C31G C42A G44U | 0.14
125 | G7C C15A C18A C23G | 0.04
126 | C3G A16G A25G | 0
127 | G5U G36A U38A A39C A41G | 0.04
128 | G1A C3A A4U | 2.1
129 | C10A C18G G30U | 0.17
130 | G17C G19C A26C | 0.47
131 | C13U C15G U28A G33A | 0.03
132 | C13A A14U G17A G33U U38A A39U | 0.04
133 | C8U G17C G19A U20G G21C | 0.04
134 | G5A G21U G44C | 0.07
135 | G2U C18A G21U U34C | 0.04
136 | A16G G19U G27A U28G G30U C31U | 0.13
137 | G5U U9G G19C A41C C42G | 0.01
138 | U32A U34C C46A | 0.08
139 | C8U C10A A11G A16G G17A G19A A41C C42G | 0.01
140 | G5C G7A C15U A25G U38A | 0.03
141 | A11U G30A G36U A39U A41U | 0
142 | A6G C23A A24G A25U G44U | 0.03
143 | A6G C15G C18G A26G U43G | 0.03
144 | G5C C8G A39G | 1.06

Row | Variant | self-cleavage
145 | G22U G35U A41G | 0.21
146 | G1C G19U G27C G44C | 0.05
147 | G7U G29C A41G | 0.03
148 | A4G A24C G29U G33C | 0.05
149 | G5A A11C G33U | 0.02
150 | C15A A16G C23U C42G G44U | 0.04
151 | C3G G21A C45U C46A | 0.73
152 | G21U C23G U28A G35C | 0.02
153 | G7C A11C U32A | 0.01
154 | G5A C13A C31U | 0.06
155 | C8A C13A G36U A41U C46G | 0.08
156 | U9G G40U C42U | 0.03
157 | C3U C13A G36C | 0.06
158 | C10U A16C A41G | 0.03
159 | A16C G27A U32G C42U | 0.03
160 | A4U G22A G40A C45G | 0.49
161 | A6U A14C C15G C18G G22A | 0.02
162 | A4G C8A C13G G19A G44C | 0.03
163 | C8U G17C G36U U43A | 0.12
164 | C3U C18A C23U | 0.1
165 | A16U G17C G22A | 0.38
166 | A4G G7A C15A A41C | 1.17
167 | C15A G29A G36A U43G C45G | 0

Source: the RNAGym collection of RNA variant scans (doi:10.7554/elife.90254)
